Experimental data reported in PMC5133542.
Results are given in words; binding and its absence hold for the method and conditions named. In cells and extracts the contact can be indirect. Some results given as binding are weak or reduced against the parent protein; the word gives no strength.

Amino acid sequences for entries named in this document (tags omitted).
UniProt Q9UBF6: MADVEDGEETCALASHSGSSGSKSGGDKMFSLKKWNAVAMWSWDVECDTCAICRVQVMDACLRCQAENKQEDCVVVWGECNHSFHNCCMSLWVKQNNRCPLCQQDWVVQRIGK
UniProt P61077: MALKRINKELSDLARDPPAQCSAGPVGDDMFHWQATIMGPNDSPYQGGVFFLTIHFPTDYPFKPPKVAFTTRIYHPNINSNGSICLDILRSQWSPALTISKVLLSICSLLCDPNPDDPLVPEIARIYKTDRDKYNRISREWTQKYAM
UniProt Q13616: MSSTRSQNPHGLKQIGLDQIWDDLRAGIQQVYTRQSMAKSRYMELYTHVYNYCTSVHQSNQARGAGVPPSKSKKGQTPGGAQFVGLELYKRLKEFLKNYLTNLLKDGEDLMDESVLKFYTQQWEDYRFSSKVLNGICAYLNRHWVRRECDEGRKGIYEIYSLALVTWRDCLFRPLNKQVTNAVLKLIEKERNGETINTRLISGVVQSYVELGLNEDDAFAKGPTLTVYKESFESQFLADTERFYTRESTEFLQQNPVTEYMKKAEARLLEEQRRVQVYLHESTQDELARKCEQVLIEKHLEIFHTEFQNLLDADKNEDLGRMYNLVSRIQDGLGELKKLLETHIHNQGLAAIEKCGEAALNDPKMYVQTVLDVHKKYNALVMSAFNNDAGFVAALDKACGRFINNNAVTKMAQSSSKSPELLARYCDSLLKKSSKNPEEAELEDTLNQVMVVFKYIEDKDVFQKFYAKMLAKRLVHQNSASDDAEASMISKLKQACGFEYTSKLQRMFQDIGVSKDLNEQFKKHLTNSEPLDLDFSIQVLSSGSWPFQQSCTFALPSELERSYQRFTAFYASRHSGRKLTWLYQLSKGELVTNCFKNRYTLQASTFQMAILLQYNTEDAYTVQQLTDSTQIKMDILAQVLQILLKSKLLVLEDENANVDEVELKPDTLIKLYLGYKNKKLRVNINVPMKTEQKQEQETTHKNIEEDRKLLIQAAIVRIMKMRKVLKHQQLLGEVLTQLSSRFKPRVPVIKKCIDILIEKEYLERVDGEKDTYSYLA
UniProt P49427: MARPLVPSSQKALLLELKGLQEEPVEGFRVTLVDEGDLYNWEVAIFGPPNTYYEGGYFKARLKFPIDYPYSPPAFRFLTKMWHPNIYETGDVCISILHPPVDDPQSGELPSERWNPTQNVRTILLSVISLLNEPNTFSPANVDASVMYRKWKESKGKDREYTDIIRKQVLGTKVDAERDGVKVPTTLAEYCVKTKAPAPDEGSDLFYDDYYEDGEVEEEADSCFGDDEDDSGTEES
UniProt O00762: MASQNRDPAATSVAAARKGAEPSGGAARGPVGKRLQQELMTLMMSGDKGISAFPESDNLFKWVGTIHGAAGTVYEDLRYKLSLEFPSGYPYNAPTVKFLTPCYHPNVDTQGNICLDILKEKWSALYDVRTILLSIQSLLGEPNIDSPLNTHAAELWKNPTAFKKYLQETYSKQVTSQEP
UniProt Q16763: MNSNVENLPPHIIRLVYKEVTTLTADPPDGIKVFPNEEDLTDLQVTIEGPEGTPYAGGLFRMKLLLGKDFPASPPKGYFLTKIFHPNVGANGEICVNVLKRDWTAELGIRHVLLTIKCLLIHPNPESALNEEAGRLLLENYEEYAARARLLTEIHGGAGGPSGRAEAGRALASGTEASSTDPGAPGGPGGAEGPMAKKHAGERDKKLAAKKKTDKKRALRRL
UniProt Q93034: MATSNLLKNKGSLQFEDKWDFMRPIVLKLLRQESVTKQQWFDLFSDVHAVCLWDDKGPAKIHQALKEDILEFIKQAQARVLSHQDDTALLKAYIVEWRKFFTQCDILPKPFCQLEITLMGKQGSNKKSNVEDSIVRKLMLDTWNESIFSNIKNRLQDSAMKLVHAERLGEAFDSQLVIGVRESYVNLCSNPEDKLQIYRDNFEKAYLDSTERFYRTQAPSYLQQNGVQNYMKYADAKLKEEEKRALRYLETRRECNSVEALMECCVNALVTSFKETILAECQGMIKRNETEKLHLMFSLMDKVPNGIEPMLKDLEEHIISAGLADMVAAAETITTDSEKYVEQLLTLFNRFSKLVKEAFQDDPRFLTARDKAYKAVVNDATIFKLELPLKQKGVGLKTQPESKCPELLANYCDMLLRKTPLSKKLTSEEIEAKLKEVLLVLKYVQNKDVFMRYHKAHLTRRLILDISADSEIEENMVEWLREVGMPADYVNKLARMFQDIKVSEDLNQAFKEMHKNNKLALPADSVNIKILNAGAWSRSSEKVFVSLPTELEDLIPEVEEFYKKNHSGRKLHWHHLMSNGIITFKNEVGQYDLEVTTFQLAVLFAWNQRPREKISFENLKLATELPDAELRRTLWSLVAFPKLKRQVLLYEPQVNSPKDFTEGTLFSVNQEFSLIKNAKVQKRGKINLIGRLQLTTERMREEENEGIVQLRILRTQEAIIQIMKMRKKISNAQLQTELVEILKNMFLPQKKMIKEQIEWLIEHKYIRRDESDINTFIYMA
UniProt Q9Y297: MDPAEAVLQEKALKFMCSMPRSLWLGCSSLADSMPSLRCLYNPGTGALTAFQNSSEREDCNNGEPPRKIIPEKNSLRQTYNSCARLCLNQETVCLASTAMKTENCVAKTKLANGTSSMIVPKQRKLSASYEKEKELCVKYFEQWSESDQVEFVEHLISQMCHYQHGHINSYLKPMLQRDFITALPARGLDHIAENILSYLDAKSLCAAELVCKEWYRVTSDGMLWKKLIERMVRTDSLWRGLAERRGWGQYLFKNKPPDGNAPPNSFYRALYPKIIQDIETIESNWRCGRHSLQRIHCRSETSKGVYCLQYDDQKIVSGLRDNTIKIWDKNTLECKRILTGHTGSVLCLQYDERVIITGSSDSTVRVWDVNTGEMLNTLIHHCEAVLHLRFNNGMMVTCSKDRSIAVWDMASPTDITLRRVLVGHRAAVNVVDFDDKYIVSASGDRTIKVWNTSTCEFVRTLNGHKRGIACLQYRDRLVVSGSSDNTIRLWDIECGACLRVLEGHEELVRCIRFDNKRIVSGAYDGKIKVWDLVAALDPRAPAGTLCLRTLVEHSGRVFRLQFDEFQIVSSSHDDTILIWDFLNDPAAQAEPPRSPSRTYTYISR

Experiments:
[1] = biological target: endogenous SAG/RBX2 (human (endogenous in 293T and A549)) (UniProt Q9UBF6); assay: co-IP; endogenous proteins; whole cell extracts of A549 cells (and a second lung cancer cell line), unstressed; IP with antibody against SAG or RBX1 or against each of four E2s; immunoblot
FLAG-SAG = FLAG-SAG (UniProt Q9UBF6); assay: co-IP; 293T cells transfected with FLAG-SAG or FLAG-RBX1; IP with FLAG Ab or normal IgG control; immunoblot of endogenous E2s
[2] = biological target: endogenous UBCH5C (human (endogenous in 293T and A549)) (UniProt P61077); assay: co-IP; endogenous proteins; whole cell extracts of A549 cells (and a second lung cancer cell line), unstressed; IP with antibody against SAG or RBX1 or against each of four E2s; immunoblot
FLAG-tagged CUL1 = FLAG-tagged CUL1 (UniProt Q13616); assay: co-IP; 293T cells transfected with FLAG-tagged CUL1 or CUL5; IP with anti-FLAG Ab or IgG control, protein A&G beads, 4 °C; immunoblot of endogenous proteins
[3] = biological target: endogenous CDC34 (human (endogenous in 293T and A549)) (UniProt P49427); assay: co-IP; endogenous proteins; whole cell extracts of A549 cells (and a second lung cancer cell line), unstressed; IP with antibody against SAG or RBX1 or against each of four E2s; immunoblot
[4] = biological target: endogenous UBCH10/UBE2C (human (endogenous in 293T and A549)) (UniProt O00762); assay: as above
[5] = biological target: endogenous UBE2S (human (endogenous in 293T and A549)) (UniProt Q16763); assay: as above
FLAG-tagged CUL5 = FLAG-tagged CUL5 (UniProt Q93034); assay: co-IP; 293T cells transfected with FLAG-tagged CUL1 or CUL5; IP with anti-FLAG Ab or IgG control, protein A&G beads, 4 °C; immunoblot of endogenous proteins
[6] = biological target: endogenous SAG/RBX2 (human (endogenous in 293T and A549)) (UniProt Q9UBF6); assay: co-IP; endogenous proteins; A549 cells untreated or treated with 10 μM MG132 for 4 hrs; whole cell extracts immunoprecipitated with antibodies against SAG or β-TrCP, IgG control; immunoblot

Row | Substance | binding [1] | binding (FLAG-SAG) | binding [2] | further results
1 | endogenous UBCH5C (from UniProt P61077 1-147) (enzyme) | binds weakly | binds weakly |  | 
2 | endogenous CDC34 (from UniProt P49427 1-236) (enzyme) |  | no binding | binds | 
3 | endogenous β-TrCP1 (from UniProt Q9Y297 1-605) |  |  |  | binding (FLAG-tagged CUL1): binds
4 | endogenous UBCH10/UBE2C (from UniProt O00762 1-179) (enzyme) | binds | binds | no binding | binding [3]: no binding
5 | endogenous SAG/RBX2 (from UniProt Q9UBF6 1-113) |  |  | binds weakly | binding [4]: binds; binding [5]: binds; binding (FLAG-tagged CUL5): binds; binding (FLAG-tagged CUL1): binds
6 | endogenous CUL5 (from UniProt Q93034 1-780) |  |  |  | binding [6]: binds
7 | endogenous UBE2S (from UniProt Q16763 1-222) (enzyme) | binds | binds |  | binding [4]: binds; binding [3]: no binding
